We go through 13 molecules from the supplement of paper PMC4604168 (melanoma cell lines).

Holding throughout (test): cell count relative to DMSO control; melanoma cells; higher = more viable cells
One assay concerns MeWo. The following applies: library dose: low library concentration; 72 h.
The next assay deals with RPMI7951. The following applies: library dose: low library concentration; 72 h.
A further assay has as its system RVH-421. The following applies: library dose: low library concentration; 72 h.
For a further assay, the system named is SkMel28. The following applies: library dose: low library concentration; 72 h.
The test system of a further assay is SkMel30. The following applies: library dose: low library concentration; 72 h.
Another assay concerns SkMel5. Particulars: library dose: low library concentration; 72 h.
Another assay concerns UACC257. The following applies: library dose: low library concentration; 72 h.
Another assay concerns UACC62. The following applies: library dose: low library concentration; 72 h.
The test system of a further assay is WM115. The following applies: library dose: low library concentration; 72 h.
Another assay relates to WM1716. The following applies: library dose: low library concentration; 72 h.
Another assay has as its system WM1745. The following applies: library dose: low library concentration; 72 h.
In a further assay the test system is WM3526. Particulars: library dose: low library concentration; 72 h.
The test system of another assay is WM3619. Particulars: library dose: low library concentration; 72 h.
The test system of a further assay is WM451Lu. Particulars: library dose: low library concentration; 72 h.
A further assay concerns 501Mel. The following applies: library dose: standard library concentration; 72 h.
For the next assay, the system named is A101D. Particulars: library dose: standard library concentration; 72 h.
The subject of the next assay is A2058. Particulars: library dose: standard library concentration; 72 h.
For another assay, the system named is A375. The following applies: library dose: standard library concentration; 72 h.

Each structure is given as a SMILES string. This is one part of the list. Single values are uncertain, as repeats are few or missing.

In the case of `Nc1ncn([C@H]2C[C@H](O)[C@@H](CO)O2)c(=O)n1` [decitabine] + COc1ccc(COc2ccc(Cc3cnc(N)nc3N)cc2OC)cc1 [GW2580] (first compound 0.1 µM, partner dose 1 µM), the cell count in the assay with MeWo was found to be 95.5%; in the assay on RPMI7951 it was 93.5%; in the assay with RVH-421, 122%; in the assay on SkMel28 it was 87.5%; in the assay with SkMel30 it was 108%; with SkMel5, 106%. The cell count amounted to 78% in the assay on UACC257; 70.3% in the assay with UACC62; 77.9% with WM115; 79.1% in the assay on WM1716; 97% in the assay on WM1745; 96.1% in the assay on WM3526. Also, the cell count in the assay with WM3619 stood at 89.9%; in the assay on WM451Lu it was 97.2%.
Consider `CO[C@H]1C[C@@H]2CC[C@@H](C)[C@@](O)(O2)C(=O)C(=O)N2CCCC[C@H]2C(=O)O[C@H]([C@H](C)C[C@@H]2CC[C@@H](OCCO)[C@H](OC)C2)CC(=O)[C@H](C)/C=C(\C)[C@@H](O)[C@@H](OC)C(=O)[C@H](C)C[C@H](C)/C=C/C=C/C=C/1C` [everolimus] + Cc1ccc(NC(=O)c2cccc(N(C)C)c2)cc1NC(=O)c1ccc(O)cc1 [ZM336372] (first compound 0.02 µM, partner dose 2 µM), for which the cell count in the assay on MeWo stood at 65.4%; in the assay with RPMI7951, 64.9%; in the assay with RVH-421 it was 88.6%; in the assay on SkMel28 it was 55.2%; in the assay with SkMel30, 59%; in the assay on SkMel5, 110%. Besides, the cell count was 70.3% in the assay with UACC257; 70.3% in the assay on UACC62; 68.4% in the assay with WM115; 89.3% in the assay on WM1716; 74.7% in the assay on WM1745; 65.6% in the assay on WM3526. For the same molecule, the cell count in the assay with WM3619 worked out at 63%; in the assay with WM451Lu it was 99.2%.
Turning to `Nc1ccn([C@@H]2O[C@H](CO)[C@@H](O)C2(F)F)c(=O)n1` [gemcitabine] + CCc1ccc(CCOc2ccc(CC3SC(=O)NC3=O)cc2)nc1 [pioglitazone] (first compound 0.002 µM, partner dose 10 µM), the cell count with 501Mel came to 109%; with A101D, 79.9%; in the assay on A2058, 75.1%; in the assay with A375, 115%.
`CC(=O)c1c(C)c2cnc(Nc3ccc(N4CCNCC4)cn3)nc2n(C2CCCC2)c1=O` [palbociclib] + N#Cc1c(O)c2c(-c3ccc(-c4ccccc4O)cc3)csc2[nH]c1=O [A769662] (first compound 0.2 µM, partner dose 10 µM): the cell count was 57.4% with 501Mel, 66% with A101D, 107% in the assay with A2058 and 87.5% in the assay on A375.
With `CC(=O)c1c(C)c2cnc(Nc3ccc(N4CCNCC4)cn3)nc2n(C2CCCC2)c1=O` [palbociclib] + Cc1cc([N+](=O)[O-])ccc1NS(=O)(=O)c1cc(Cl)ccc1Cl [FH535] (first compound 0.2 µM, partner dose 5 µM), the cell count in the assay with 501Mel was determined as 43.6%; in the assay on A101D it was 58.4%; in the assay with A2058, 64.5%; in the assay on A375 it was 51.4%.
In the case of `Nc1ccn([C@@H]2O[C@H](CO)[C@@H](O)C2(F)F)c(=O)n1` [gemcitabine] + COc1cc2ncnc(Nc3ccc(Oc4ccccc4)cc3)c2cc1OC [SrcI1] (first compound 0.002 µM, partner dose 10 µM), the cell count with 501Mel is 68.2%; with A101D, 46.5%; in the assay on A2058, 53.5%; in the assay with A375, 136%.
On to `CC(=O)c1c(C)c2cnc(Nc3ccc(N4CCNCC4)cn3)nc2n(C2CCCC2)c1=O` [palbociclib] + O=C(Nc1ccccc1)c1cc([N+](=O)[O-])ccc1Cl [GW9662] (first compound 0.2 µM, partner dose 10 µM), for which the cell count with 501Mel is 43.1%; with A101D, 62.8%; with A2058, 105%; with A375, 83.6%.
Regarding `CC(=O)O[C@@]12CO[C@@H]1C[C@H](O)[C@@]1(C)C(=O)[C@H](O)C3=C(C)[C@@H](OC(=O)[C@H](O)[C@@H](NC(=O)OC(C)(C)C)c4ccccc4)C[C@@](O)([C@@H](OC(=O)c4ccccc4)[C@H]21)C3(C)C` [Docetaxel] + O=C1NC(=O)/C(=C/c2ccc(-c3ccc(F)cc3O)o2)S1 [AS252424] (first compound 0.0005 µM, partner dose 5 µM), the cell count in the assay on 501Mel stood at 40.8%; with A101D, 48.7%; in the assay with A2058 it was 9.17%; in the assay on A375 it was 84%.
For the molecule `Nc1ncn([C@H]2C[C@H](O)[C@@H](CO)O2)c(=O)n1` [decitabine] + O=C1NC(=O)/C(=C/c2ccc(-c3ccc(F)cc3O)o2)S1 [AS252424] (first compound 0.5 µM, partner dose 5 µM), the cell count in the assay with 501Mel came to 86.3%; with A101D it was 74.1%; with A2058 it was 76.4%; in the assay on A375, 170%.
With `CC(=O)c1c(C)c2cnc(Nc3ccc(N4CCNCC4)cn3)nc2n(C2CCCC2)c1=O` [palbociclib] + Cn1cc(/C=C2\C(=O)Nc3cccnc32)c2ccccc21 [GW441756] (first compound 0.2 µM, partner dose 2 µM), the cell count in the assay on 501Mel came to 53.7%; in the assay on A101D, 66.2%; in the assay with A2058 it was 118%; in the assay on A375, 69.1%.
The corresponding values for `Nc1ccn([C@@H]2O[C@H](CO)[C@@H](O)C2(F)F)c(=O)n1` [gemcitabine] + c1cc(-c2cnn3cc(-c4ccc(OCCN5CCCCC5)cc4)cnc23)ccn1 [Dorsomorphin] (first compound 0.002 µM, partner dose 2 µM) are 71.2%, 76.6%, 50.6% and 99.5%.
As to `CO[C@H]1C[C@@H]2CC[C@@H](C)[C@@](O)(O2)C(=O)C(=O)N2CCCC[C@H]2C(=O)O[C@H]([C@H](C)C[C@@H]2CC[C@@H](OCCO)[C@H](OC)C2)CC(=O)[C@H](C)/C=C(\C)[C@@H](O)[C@@H](OC)C(=O)[C@H](C)C[C@H](C)/C=C/C=C/C=C/1C` [everolimus] + O=C(O)C(=O)Nc1sc2c(c1C(=O)O)CCNC2 [TCS401] (first compound 0.1 µM, partner dose 8.33333 µM), the cell count with 501Mel amounted to 58.5%; in the assay with A101D it was 77.6%; in the assay with A2058 it was 57.2%; with A375 it was 103%.
As to `Nc1ncn([C@H]2C[C@H](O)[C@@H](CO)O2)c(=O)n1` [decitabine] + CCCCCCCCCCCC1=C(O)C(=O)C=C(O)C1=O [Embelin] (first compound 0.5 µM, partner dose 6 µM), the cell count is 114% in the assay with 501Mel, 94% in the assay with A101D, 57.8% in the assay on A2058 and 89.3% in the assay on A375.
